This passage reports cell count results from the supplement of paper PMC12462457.

For this assay, the system named is OVCAR8. In words: cell count relative to DMSO vehicle (fold change); OVCAR8 is a high-grade serous ovarian cancer line and CX-5461 an RNA polymerase I inhibitor; higher = more surviving senescent cells (less killing). To be noted: senescence inducer: CX-5461 3 µM 48 h, then 6 d recovery (CX senescent), exposure time 24 h.

Structures can show the parent of a compound that is named as a salt. ± gives the standard deviation of the averaged measurements. The list shows a part of the results.

`Oc1c2ccccc2c2c3c(cccc13)N=N2`: the cell count was determined as 1.08 ± 0.17 (compound dose 1 µM) and 0.808 ± 0.12 (compound dose 5 µM).

Regarding `CCCCC(CC)CNC(=N)NC(=N)NCCCCCCNC(=N)NC(=N)NCC(CC)CCCC` (stereo not given) [Alexidine (dihydrochloride)], the cell count was 1.12 ± 0.081 (compound dose 1 µM) and 0.509 ± 0.022 (compound dose 5 µM).

For the compound `CCCCCCc1ccc(O)cc1O`, the cell count is, setting by setting: (compound dose 1 µM) 1.09 ± 0.15; (compound dose 5 µM) 1.03 ± 0.096.

As to `Cc1[nH]c(/C=C2\C(=O)Nc3ccc(S(=O)(=O)N(C)c4cccc(Cl)c4)cc32)c(C)c1C(=O)N1CCN(C)CC1`, the cell count reads like this: (compound dose 1 µM) 1.16 ± 0.18; (compound dose 5 µM) 1.14 ± 0.22.

For the compound `CC(C)=CCC[C@](C)(O)C1CC=C(C)CC1` (stereo not given in full), the cell count worked out at 1.04 ± 0.12 (compound dose 1 µM) and 1.14 ± 0.13 (compound dose 5 µM).

`CCCCc1nc(C)c(CC(=S)N(C)C)c(=O)n1Cc1ccc(-c2ccccc2-c2nnn[nH]2)cc1` [Fimasartan] came in with a cell count (compound dose 1 µM) of 1.08 ± 0.016 and a cell count (compound dose 5 µM) of 1.09 ± 0.029.

For `COc1ccc(C(=O)C2CCN(CC(=O)N(Cc3nc4c(c(=O)[nH]3)COCC4)CC3CC3)CC2)cc1`, the cell count runs as follows: (compound dose 1 µM) 0.936 ± 0.14; (compound dose 5 µM) 0.935 ± 0.11.

As to `Nc1ncnc2c1c(-c1cnc3[nH]ccc3c1)nn2C1CCCC1`, the cell count by setting is: (compound dose 1 µM) 0.501 ± 0.02; (compound dose 5 µM) 0.0845 ± 0.0035.

For `CCCCC(=O)N(Cc1ccc(-c2ccccc2-c2nn[nH]n2)cc1)[C@H](C(=O)O)C(C)C.CCOC(=O)[C@H](C)C[C@@H](Cc1ccc(-c2ccccc2)cc1)NC(=O)CCC(=O)O` [Sacubitril/Valsartan], the cell count runs as follows: (compound dose 1 µM) 1.08 ± 0.092; (compound dose 5 µM) 1.01 ± 0.18.

`Cn1c(=O)n(CCC(C)(C)O)c2cc(Nc3nc(Cl)ncc3Cl)ccc21` displayed a cell count (compound dose 1 µM) of 1.08 ± 0.2 and a cell count (compound dose 5 µM) of 1.13 ± 0.076.

As to `CC(C)=CC[C@H](O)C1=CC(=O)c2c(O)ccc(O)c2C1=O` [(-)-Alkannin], the cell count was 1.11 ± 0.12 (compound dose 1 µM) and 1.17 ± 0.22 (compound dose 5 µM).

On to `CCNC(=O)C#Cc1ccc2c(C(=Nc3ccc(CN(C)C)cc3)c3ccccc3)c(O)[nH]c2c1`, for which the cell count (compound dose 1 µM) worked out at 1.31 ± 0.3 and the cell count (compound dose 5 µM) came out at 1.14 ± 0.15.

With `CN(C)CCCN1c2ccccc2CCc2ccccc21`, the cell count runs as follows: (compound dose 1 µM) 1.02 ± 0.078; (compound dose 5 µM) 1.06 ± 0.14.

On to `COc1ccc(/C=C/C(=O)c2c(-c3ccccc3)c3ccccc3[nH]c2=O)cc1` [Ceranib-2], for which the cell count stood at 1.01 ± 0.028 (compound dose 1 µM) and 0.889 ± 0.1 (compound dose 5 µM).

`CC1(C)CC[C@]2(C(=O)n3cnc(-c4cccnc4)c3)CC[C@]3(C)[C@H](C(=O)C=C4[C@@]5(C)C=C(C#N)C(=O)C(C)(C)[C@@H]5CC[C@]43C)[C@@H]2C1`: the cell count is 0.925 ± 0.15 (compound dose 1 µM) and 0.009 (compound dose 5 µM).

In the case of `Clc1ccc(Nc2nnc(Cc3ccncc3)c3ccccc23)cc1` [Vatalanib (PTK787) 2HCl], the cell count by setting is: (compound dose 1 µM) 1.12 ± 0.059; (compound dose 5 µM) 1.125 ± 0.011.

In the case of `C/C=C1\[C@H]2C=C(C)C[C@]1(N)c1ccc(=O)[nH]c1C2` [(-)-Huperzine A], the cell count (compound dose 1 µM) was determined as 1.08 ± 0.11 and the cell count (compound dose 5 µM) was 1.13 ± 0.14.

As for `CCOC(=O)[C@H](CCc1ccccc1)N[C@@H](C)C(=O)N1Cc2cc(OC)c(OC)cc2C[C@H]1C(=O)O` [Moexipril (hydrochloride)], the cell count by setting is: (compound dose 1 µM) 1.13 ± 0.17; (compound dose 5 µM) 1.03 ± 0.13.

In turn, `COc1cc(/C=C/C(=O)CC(=O)/C=C/c2ccc(O)c(OC)c2)ccc1O` returned a cell count (compound dose 1 µM) of 1.01 ± 0.13 and a cell count (compound dose 5 µM) of 1.1 ± 0.1.

`O=C1C(SCCO)=C(SCCO)C(=O)c2ccccc21`: the cell count reads like this: (compound dose 1 µM) 1.09 ± 0.1; (compound dose 5 µM) 0.007 ± 0.0014.

In the case of `COC(=O)CC(NC(=O)OC(C)(C)C)C(=O)CF` (stereo not given), the cell count runs as follows: (compound dose 1 µM) 1.01 ± 0.1; (compound dose 5 µM) 1.09 ± 0.13.

For `Cn1cnc([N+](=O)[O-])c1Sc1ncnc2[nH]cnc12` [Azathioprine], the cell count was 1.05 ± 0.16 (compound dose 1 µM) and 1.14 ± 0.017 (compound dose 5 µM).

For the compound `S=C(NCc1ccc2c(c1)OCO2)N1CCN(c2ncnc3c2oc2ccccc23)CC1` [Amuvatinib (MP-470)], the cell count by setting is: (compound dose 1 µM) 1.26 ± 0.27; (compound dose 5 µM) 1.11 ± 0.25.

In turn, `COc1ccc(/C=C/C(=O)c2ccc(OC)c3c2OC(C)(C)C=C3)cc1` [Millepachine] gave a cell count (compound dose 1 µM) of 1.08 ± 0.064 and a cell count (compound dose 5 µM) of 1.05 ± 0.12.

With `CN1C(=O)N[C@@H](Cc2c[nH]c3c(Cl)cccc23)C1=O` [Necrostatin 2 (S enantiomer)], the cell count by setting is: (compound dose 1 µM) 1.02 ± 0.089; (compound dose 5 µM) 1.13 ± 0.17.

As for `CC1(C)CCC2=C(O1)c1ccccc1C(=O)C2=O` [beta-LAPACHONE], the cell count by setting is: (compound dose 1 µM) 0.989 ± 0.11; (compound dose 5 µM) 1.01 ± 0.089.

On to `CCOC(=O)[C@@]1(CCCCCCOc2ccc(Cl)cc2)CO1` [Etomoxir (sodium salt)], for which the cell count runs as follows: (compound dose 1 µM) 1.03 ± 0.13; (compound dose 5 µM) 0.99 ± 0.041.

Regarding `CCOC(=O)[C@@]1(CCCCCCOc2ccc(Cl)cc2)CO1` [Etomoxir], the cell count (compound dose 1 µM) came out at 1.1 ± 0.29 and the cell count (compound dose 5 µM) was 1.19 ± 0.34.

The compound `Cn1c(Nc2ccc(C(F)(F)F)cc2)nc2cc(Oc3ccnc(-c4ncc(C(F)(F)F)[nH]4)c3)ccc21` yielded a cell count (compound dose 1 µM) of 1.15 ± 0.088 and a cell count (compound dose 5 µM) of 1.11 ± 0.083.

As for `C[C@H](CCC(=O)O)[C@H]1CC[C@H]2[C@@H]3CC[C@@H]4C[C@H](O)CC[C@]4(C)[C@H]3CC[C@]12C` [Lithocholic acid], the cell count reads like this: (compound dose 1 µM) 1.07 ± 0.17; (compound dose 5 µM) 1.21 ± 0.15.
